Laboratory results from PubChem BioAssay AID624417 (National Center for Advancing Translational Sciences (NCATS), 2012).
The campaign covered roughly 410,000 compounds. About 6,400 (1.6%) were called active. Inconclusive results, whose numbers are uncertain, are shown with a selection of clear calls. Calls follow the shape of the dose curve; as a rule, active = well fitted inhibition curve with a large enough effect; inconclusive = small, poorly fitted or top-dose-only effect; inactive = no such curve, though single readings can be large or run the other way. No potency is given beside an inconclusive call; the fits are too rough.

molecular target: Glucagon-like peptide 1 receptor (Homo sapiens) (UniProt P43220); assay: qHTS of GLP-1 Receptor Inverse Agonists (Inhibition Mode); details: HEK293 GLP-1R CRE-luciferase, luminescence, 24 h, GLP-1R form is constitutively active; activity change, negative = inhibition: at 38.3 µM (top of the series) unless noted; also: nearly all actives have a fitted effect of over 55% in size
Method in brief: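 Stable HEK293 clone (constitutively active GLP-1R + cAMP-response luciferase); 200 cells/uL plated, 12 h pre-culture, compound 24 hr, 37 deg C/5% CO2; detection reagent 12 min RT; luminescence.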
% is scaled to controls: 0 for no effect and ±100 for the full control effect; potency is read from the fitted curve at half-maximal effect; tags tell the direction and shape of the fitted curve.

UniProt P43220, sequence (P43220 whole entry, looked up): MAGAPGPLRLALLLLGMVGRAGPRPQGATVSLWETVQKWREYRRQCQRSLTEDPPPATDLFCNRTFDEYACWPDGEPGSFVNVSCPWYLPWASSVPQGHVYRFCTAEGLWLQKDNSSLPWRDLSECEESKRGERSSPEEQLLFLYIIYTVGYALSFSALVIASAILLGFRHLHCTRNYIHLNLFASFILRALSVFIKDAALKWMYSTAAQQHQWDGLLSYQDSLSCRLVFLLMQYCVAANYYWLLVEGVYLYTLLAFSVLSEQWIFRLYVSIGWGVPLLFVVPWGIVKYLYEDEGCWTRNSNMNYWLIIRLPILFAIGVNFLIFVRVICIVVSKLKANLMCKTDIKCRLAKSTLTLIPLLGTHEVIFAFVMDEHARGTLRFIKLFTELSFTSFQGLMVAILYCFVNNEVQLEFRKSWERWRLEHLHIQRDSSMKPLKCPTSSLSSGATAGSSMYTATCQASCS

Structure (SMILES) | Potency | activity change, negative = inhibition
CCc1ccccc1OCCCCN1CCCC1 | inconclusive [inhibitor, single point] | –
COc1ccccc1Nc1nc(-c2cccnc2)cs1 | inconclusive [inhibitor, single point] | –
COc1ccccc1Nc1c2c(nc3ccc(NC(=O)/C=C/c4cccc(OC)c4OC)cc13)CCCC2 | inconclusive [inhibitor, single point] | –
CC1S/C(=N/N=C/c2cccc([N+](=O)[O-])c2)NC1=O (stereo not given) | inconclusive [inhibitor, partial curve, poor fit] | –
Cc1ccc(Nc2c3c(nc4nncn24)CCC3)cc1 | – | inactive: 13.2%
COc1ccc2oc(C(=O)OC(C)C(=O)NC3(C#N)CCCCC3)c(C)c2c1 (stereo not given) | – | inactive: 17.2%
CN1CCN(c2ccc(-c3cc(NC=O)c4ncc(-c5ccc(F)c(Cl)c5)n4c3)cc2)CC1 | inconclusive [inhibitor, partial curve, poor fit] | –
Cc1oc(-c2ccc3c(c2)OCCO3)cc1C(=O)NCC(=O)O | inconclusive [inhibitor, partial curve] | –
O=C(c1cc(COc2c(F)cccc2F)on1)N1CCCCCC1 | inconclusive [inhibitor, partial curve, poor fit] | –
COc1ccccc1-n1cc(-c2ccc(C)cc2)nc1S(=O)(=O)CC(=O)Nc1ccccc1C(F)(F)F | inconclusive [inhibitor, single point] | –
CCOc1ccc(NC(=O)CN2CCCC2c2cccs2)cc1S(=O)(=O)N1CCCCC1 (stereo not given) | inconclusive [inhibitor, partial curve, poor fit] | –
CC(=O)C1CCC2C3CCC4CC(=O)CCC4(C)C3C=CC12C (stereo not given) | inconclusive [inhibitor, single point] | –
Cc1csc(NC(=O)CSc2nnc(-c3ccoc3C)n2C(C)c2ccccc2)n1 (stereo not given) | inconclusive [inhibitor, partial curve, poor fit] | –
COc1ccc(CC(=O)Nc2ccc3nc(Nc4cccc(Cl)c4)cc(C)c3c2)cc1OC | inconclusive [inhibitor, partial curve, poor fit] | –
Cc1ccc(C(=O)OCC(=O)NCc2ccccc2)cc1S(=O)(=O)N1CCCCC1 | inconclusive [inhibitor, partial curve, poor fit] | –
CCc1cccc(CC)c1-n1c(-c2cccnc2)n[nH]c1=S | – | inactive: -8.11%
N#Cc1ccc(NC(=S)NC(=O)C2CCCCC2)cc1 | inconclusive [inhibitor, single point] | –
COCCn1c(C)cc(C(=O)CSc2ccc(NC(C)=O)cc2)c1C | – | inactive: 0%
Cc1ccc(C(=O)OC(C)C(=O)c2cc(C)c(C)cc2C)o1 (stereo not given) | inconclusive [inhibitor, single point] | –
COc1cc2c(cc1OC)C1=C(C#N)CN(C3CCCCC3)CN1CC2 | – | inactive: 54.1%

Structure (SMILES) | Potency | activity change, negative = inhibition
O=C(NCc1ccc(F)cc1)C1CCN(C(=O)c2ccc(-n3ccc4ccccc43)s2)CC1 | – | inactive: 5.58%
O=C(CCNS(=O)(=O)c1cccc2nonc12)N1CCN(c2cccc(Cl)c2)CC1 | inconclusive [inhibitor, partial curve, poor fit] | –
Cc1ccc([C@H]2N[C@]3(CCCN(CC4CCCCC4)C3=O)[C@H]3C(=O)N(Cc4ccccc4)C(=O)[C@@H]23)cc1 | inconclusive [inhibitor, partial curve, poor fit] | –
O=C1N(Cc2cccc(Cl)c2)C[C@@H]2C[C@@H](c3cccc4cccnc34)N3CCC[C@@]123 | inconclusive [inhibitor, partial curve, poor fit] | –
CN(c1ccc(C(=O)NC2CCCC2)cc1)S(=O)(=O)c1ccccc1 | inconclusive [inhibitor, single point] | –
CCOC(=O)c1c(NC(=O)CSc2c[nH]c3ccccc23)sc2c1CCCC2 | inconclusive [inhibitor, partial curve, poor fit] | –
O=C(Nc1ccc(Nc2ccccc2)cc1)c1ccccc1F | inconclusive [inhibitor, single point] | –
Cc1ccc(C)c(N2CCN(C(=O)C3CCC3)CC2)c1 | inconclusive [inhibitor, partial curve, poor fit] | –
C=CCN=c1scc(-c2ccco2)n1/N=C/c1ccc(O)c(O)c1O | – | inactive: 21.9%
CN(CC(=O)NC(=O)NC1CCCCC1)CC(=O)Nc1ccccc1C(F)(F)F | inconclusive [inhibitor, partial curve, poor fit] | –
O=C(CC1Sc2ccccc2NC1=O)NNc1ccc(Cl)c(Cl)c1 (stereo not given) | inconclusive [inhibitor, full curve, poor fit] | –
Cc1nnc(NC(=O)c2oc3ccccc3c2C)s1 | – | inactive: 7.67%
Cc1ccccc1C1(O)c2ccccc2-c2ccccc21 | inconclusive [inhibitor, single point] | –
O=C(NCc1ccc2c(c1)OCO2)c1ccc(N2CCCCCC2)c([N+](=O)[O-])c1 | inconclusive [inhibitor, partial curve, poor fit] | –
c1ccc(-c2cn3c(n2)CCc2ccc4cccnc4c2-3)cc1 | inconclusive [inhibitor, single point] | –
COc1ccccc1-c1csc(NC(=O)c2cc(-c3cccs3)nc3ccccc23)n1 | inconclusive [inhibitor, partial curve] | –
CCOC(=O)c1ccccc1NC(=O)COC(=O)c1ccccc1C(=O)N(C)c1ccccc1 | inconclusive [inhibitor, single point] | –
Cc1ccc(S(=O)(=O)NNC(=O)C2CCCCC2)cc1 | – | inactive: -15%
CCOC(=O)N1CCC(N2CCCC(C(=O)c3cc(F)ccc3OC)C2)CC1 (stereo not given) | inconclusive [inhibitor, full curve, poor fit] | –
CCCOc1ccc(N2C(=O)CC(N(Cc3ccc(OC)cc3)C(=S)Nc3ccccc3)C2=O)cc1 (stereo not given) | inconclusive [inhibitor, single point] | –
